SMILES strings stand for the structures. The whole screen tested about 52,000 compounds, of which about 1,700 (3.3%) were called active. Cut-off read from the data, not from the text of the source: active = survival mostly below about 52% (no sharp cut-off); inactive = mostly above about 56%. This is one part of the list.

The assay relates to Wild type. Put plainly: S. aureus survival, RN4220 and DeltatarO strains – OD600, teichoic acid synthesis inhibitors, primary screen (AID 463173). As to conditions: S. aureus RN4220 wild type/DeltatarO growth, OD600, 18 h, stronger effect = lower value, screened at 18.75 µg/mL (by protocol).
Regarding `Cc1c(C(=O)Nc2ccccc2)sc2ncn(CC(=O)N3CCOCC3)c(=O)c12`, the survival is inactive: 99%.
The figure for `CC(=O)N1c2c(cc(Br)cc2S(=O)(=O)N2CCN(c3cc(C)ccc3C)CC2)CC1C` (configuration not stated) is inactive: 72%; for `Cc1ccccc1CN1C(=O)c2ccccc2S(=O)c2ccc(C(=O)NC3CCC(C)CC3)cc21` (configuration not stated) it is inactive: 75%.
In the case of `CCCCSc1nnc(-c2ccc3[nH]c(C)c(C)c3c2)o1`, the survival was inactive: 111%.
The figure for `CCc1ccc(NC(=O)c2sc3nc(C)c(Cl)c(C)c3c2NC(=O)c2ccccc2OC)cc1` is inactive: 127%; for `CC1=C(C#N)C(NC(=O)c2ccccc2Cl)(C(F)(F)F)C(=O)N1` (configuration not stated) it is inactive: 139%; for `COc1ccc(OC)c(NC(=O)C2=C(C)C(=O)OC23CCCCCC3)c1` it is inactive: 129%.
Turning to `CCN(CC)CCCNC(=O)c1cnc(SC)nc1-c1ccccc1`, the survival was inactive: 69%.
With `CCN(CC)CCCNC(=O)c1cn(C)c2ccc(S(=O)(=O)N(C)C3CCCCC3)cc2c1=O`, the survival is inactive: 126%.
With `Cc1ccc(CN(C(=O)COc2ccc([N+](=O)[O-])cc2)c2ccccn2)cc1` the figure was inactive: 79%; with `COc1cccc(-c2ncnn2-c2sc3c(c2C#N)CCCCC3)c1OC`, inactive: 72%.
The figure for `CCN(C(=O)CSc1nc2ncccc2[nH]1)c1ccc(C(C)C)cc1` is inactive: 69%; for `O=C(COc1ccc(Cl)cc1)Nc1nnc(S(=O)(=O)N2CCc3ccccc32)s1` it is active: 12%.
Turning to `CCOCCc1nn2c(=O)cc(COC(=O)CNC(=O)c3cccc(C)c3)nc2s1`, the survival was inactive: 84%.
The figure for `Cc1ccc2c(=O)cc(C(=O)Nc3nc4ccc(Cl)cc4s3)oc2c1C` is inactive: 77%.
Take `CN1CCN(C(=O)c2ccc(-c3ccccc3)cc2)CC1`: the survival was inactive: 110%.
Turning to `Cc1nn(CC(=O)N2CCC(C)CC2)c(=O)c2cc3sccc3n12`, the survival was inactive: 80%.
Take `CCOc1ccc(CCNC(=O)c2cn(C)c3ccc(S(=O)(=O)N4CCCCCC4)cc3c2=O)cc1OCC`: the survival is inactive: 77%.
As to `CCOc1ccc(NC(=O)c2cnc(N3CCCC3)nc2C)cc1`, the survival is inactive: 68%.
With `COc1ccc(CNc2nc3c(-c4cccc(C)c4)nnn3c3ccccc23)cc1` the figure was inactive: 90%; with `CCOC(=O)c1c(C)[nH]c(C)c1S(=O)(=O)N(C)CC(=O)N1CCN(c2ccccc2)CC1`, inactive: 65%; with `COc1ccccc1NC(=O)c1c(NCc2ccc(OC)c(OC)c2OC)sc2c1CCC2`, inactive: 85%.
The figure for `CC(C)c1ccc(NC(=O)Cn2cc(S(=O)(=O)N3CCN(c4ccccc4F)CC3)c3ccccc3c2=O)cc1` is inactive: 69%; for `COC(=O)C1=C(C)OC(N)=C(C#N)C1c1ccco1` (configuration not stated) it is inactive: 90%; for `Cc1cc(Cl)ccc1OCc1nc(-c2ccc(-n3cccc3)cc2)no1` it is inactive: 145%.
The figure for `O=C(O)CSc1c[nH]c2ccccc12` is inactive: 113%.
Turning to `CCCNC(=O)CCc1nnc2ccc(N3CCN(c4cccc(OC)c4)CC3)nn12`, the survival is inactive: 101%.
As to `CCCCN(C)CCNC(=O)c1c2c(nc3ccccc13)C(=O)N(C1CCCCC1)C2`, the survival is inactive: 75%.
The figure for `CCCCOC(=O)c1ccc(NC(=O)c2cc3c(=O)n4cccc(C)c4nc3s2)cc1` is inactive: 71%; for `Cc1c(C(=O)NCC(c2ccc(Cl)cc2)N2CCOCC2)oc2ccccc12` (configuration not stated) it is inactive: 71%.
The figure for `CCOc1ccc(N2CC(c3nc4ccccc4n3CCCOc3ccccc3)CC2=O)cc1` (configuration not stated) is inactive: 66%; for `CC(C)(C)OC(=O)N1CCC(c2c(C(=O)NCCN3CCc4ccccc4C3)cnn2-c2ccc(F)cc2F)CC1` it is inactive: 81%; for `Cc1ccc(CN2CCC(CNC(=O)Nc3ccc(Cl)cc3)C2)cc1` (configuration not stated) it is inactive: 53%.
As for `Cc1ccc(NC(=O)CCn2c(=O)c3cccn3c3ccccc32)cc1C`, the survival was inactive: 73%.
For `Cc1ccc(-n2c(=O)c3cccnc3n2CC(=O)Nc2ccc(Br)cc2)cc1C`, the survival is inactive: 57%.
The figure for `CCC(=O)N1CCc2cc(Br)cc(S(=O)(=O)CCC(=O)NCCc3cccc(C)c3)c21` is inactive: 45%.
In the case of `CC(Oc1ccc(F)cc1)C(=O)N1CCC(c2nc3ccccc3s2)CC1` (configuration not stated), the survival is inactive: 80%.
Consider `C=CCn1c(NC)nc2c1c(=O)[nH]c(=O)n2C`, for which the survival was inactive: 101%.
For `Cc1cc(C)cc(NC(=O)C(Cc2ccccc2)NS(=O)(=O)c2ccc3c(c2)c(=O)n(C)c(=O)n3C)c1` (configuration not stated), the survival is inactive: 87%.
With `Cn1ncc2c(N3CCN(c4cccc(Cl)c4)CC3)ncnc21` the figure was inactive: 73%; with `N#Cc1c(NC(=O)COC(=O)c2cccs2)sc2c1CCC2`, inactive: 110%; with `CCOC(=O)N1CCc2c(sc(NCc3sccc3C)c2C(=O)Nc2ccc(OC)cc2OC)C1`, inactive: 71%.
The figure for `CCOC(=O)c1cc2c(ccn2-c2ccc(F)cc2)n1CC(=O)N1C(C)CCCC1C` (configuration not stated) is inactive: 134%; for `COc1ccc(C)cc1NC(=O)CCS(=O)(=O)c1cc2c3c(c1)CCN3C(=O)CC2` it is inactive: 77%.
With `COc1ccccc1N1CCN(C(=O)c2nc(SC)ncc2Cl)CC1` the figure was inactive: 89%; with `CCOc1ccc(Oc2nc(NCC(C)C)nc(N3CCOCC3)n2)nn1`, inactive: 74%.
In the case of `CC(C)(C)C(=O)Cn1c(=O)n(-c2ccc(Cl)cc2)c(=O)c2c3c(sc21)CCCC3`, the survival was inactive: 96%.
`O=C(/C=C/c1ccccc1)N1CCN(Cc2cc(=O)n3nc(-c4ccccc4F)sc3n2)CC1`: the survival is inactive: 102%.
With `CC(=O)N1CCc2cc(CNC(=O)Cc3ccc(F)cc3)ccc21` the figure was inactive: 69%; with `CCOc1ccccc1CNC(=O)C1CCN(C(=O)N2CC(CC)Oc3ccc(C)cc32)CC1` (configuration not stated), inactive: 87%.
The figure for `COc1cccc(CNC(=O)C(=O)NCC(c2ccco2)S(=O)(=O)c2cccs2)c1` (configuration not stated) is inactive: 87%; for `O=C(Cn1c(SCCOc2ccccc2)nc2ccccc21)N1CCOCC1` it is inactive: 86%; for `COc1ccc(N2CC(NC(=O)/C=C\c3ccccc3)CC2=O)cc1` (configuration not stated) it is inactive: 101%.
Regarding `Cc1cc(OCCn2cc(C(=O)c3cccs3)c3ccccc32)ccc1Cl`, the survival is inactive: 119%.
As to `O=C(Nc1ccc2nc(SCC(=O)N3CCOCC3)sc2c1)c1cccc(Cl)c1`, the survival is inactive: 39%.
The figure for `Cc1c(C(=O)OCCOc2ccccc2)[nH]c2c1C(=O)CC(c1ccccc1)C2` (configuration not stated) is inactive: 102%; for `COc1ccc(Cl)cc1N(C)C(=O)c1ccc2c(=O)n3c(nc2c1)CCCCC3` it is inactive: 69%.

The record behind these values is PubChem BioAssay AID463173 (ICCB-Longwood Screening Facility, Harvard Medical School, 2010).
